This is one part of the list. Sequences were assembled here from the parent chain. Inactive controls read about 0.05.
B1: TEV protease; numbered along this chain (parent)
chain: MGESLFKGPRDYNPISSSICHLTNESDGHTTSLYGIGFGPFIITNKHLFRRNNGTLVVQSLHGVFKVKDTTTLQQHLVDGRDMIIIRMPKDFPPFPQKLKFREPQREERICLVTTNFQTKSMSSMVSDTSCTFPSGDGIFWKHWIQTKDGQCGSPLVSTRDGFIVGIHSASNFTNTNNYFTSVPKNFMELLTNQEAQQWVSGWRLNADSVLWGGHKVFMVKPEEPFQPVKEATQL

Variants of: B1
Experiment: raw area under fraction-flipped curve 0-4 h after induction (AUC4h, not background-subtracted), DNA-recorder readout of cleavage of the substrate (dimensionless); higher = more cleavage of the substrate by the protease variant
Conditions: temperature: 34 °C; time window: 0-4 h after rhamnose induction
Protocol: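 In vivo DNA recorder in E. coli TOP10(DE3) ΔrhaA at 34 °C. Each TEVp single-site mutant (parent TEVp 0) is paired with a single-site variant of the 7-mer TEVs (canonical ENLYFQ|S). The substrate sits between flexible linkers in a Bxb1-sfGFP-TEVs-SsrA fusion, so cleavage stabilises Bxb1 and speeds flipping of a recombination array, read by NGS. The value is the raw area under the fraction-flipped curve over 0-4 h after rhamnose induction (AUC4h), with ≥20 reads per time point. It is not background-subtracted; inactive controls average about 0.047.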
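Note: Bxb1 expression induced with 0.2% (w/v) L-rhamnose at OD600 near 0.5, cultures sampled hourly, flipped fraction per protease–substrate barcode pair counted by paired-end Illumina sequencing.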

Row | Variant | area with substrate ENLYAQS | area with substrate ENLYEQS | area with substrate ENLYGQS | area with substrate ENLYHQS | area with substrate ENLYIQS | area with substrate ENLYKQS | area with substrate ENLYNQS | area with substrate ENLYPQS | area with substrate ENLYQQS | area with substrate ENLYRQS | area with substrate ENLYSQS | area with substrate ENLYVQS | area with substrate ENLYWQS | area with substrate ENLYYQS | area with substrate ENLYCQS | area with substrate ENLYDQS | area with substrate ENLYLQS | area with substrate ENLYMQS | area with substrate ENLYTQS
1 | MGESLFKGPRDYNPISSSICHLTNESDGHTTSLYGIGFGPFIITNKHLFRRNNGTLVVQSLHGVFKVKDTTTLQQHLVDGRDMIIIRMPKDFPPFPQKLKFREPQREERICLVTTNFQTKSMSSMVSDTSCTFPSGDGIFWKHWIQTKDGQCGSPLVSTRDGFIVGIHSASNFTNTNNYFTSVPKNFMELLENQEAQQWVSGWRLNADSVLWGGHKVFMVKPEEPFQPVKEATQL [T192E] | 0.072 | 0.0671 | 0.05 | 0.0695 | 0.147 | 0.0742 | 0.0651 | 0.0968 | 0.021 | 0.0581 | 0.078 | 0.0833 | 0.0832 | 0.0503 |  |  |  |  | 
2 | MGESLFKGPRDYNPISSSICHLTNESDGHTTSLYGIGFGPFIITNKHLFRRNNGTLVVQSLHGVFKVKDTTTLQQHLVDGRDMIIIRMPKDFPPFPQKLKFREPQREERICLVTTNFQTKSMSSMVSDTSCTFPSGDGIFWKHWIQTKDGQCGSPLVSTRDGFIVGIHSASNFTNTNNYFTSVLKNFMELLTNQEAQQWVSGWRLNADSVLWGGHKVFMVKPEEPFQPVKEATQL [P184L] | 0.0624 | 0.0563 | 0.0524 | 0.0845 | 0.0579 | 0.0628 | 0.0575 | 0.0571 | 0.0574 |  | 0.0585 |  | 0.08 | 0.0444 | 0.0486 | 0.0561 | 0.0462 | 0.0558 | 
3 | MGESLFKGPRDYNPISSSICHLTNESDGHTTSLYGIGFGPFIITNKHLFRRNNGTLVVQSLHGVFKVKDTTTLQQHLVDGRDMIIIRMPKDFPPFPQKLKFREPQREERICLVTTNFQTKSMSSMVSDTSCTFPSGDGIFWKHWIQTKDGQCGSPLVSTRDGFIVGIQSASNFTNTNNYFTSVPKNFMELLTNQEAQQWVSGWRLNADSVLWGGHKVFMVKPEEPFQPVKEATQL [H168Q] | 0.0629 | 0.0679 |  | 0.0574 | 0.0825 | 0.0621 | 0.0635 | 0.0571 |  | 0.0649 |  |  |  | 0.0648 | 0.0656 | 0.0569 |  | 0.0477 | 
4 | MGESLFKGPRDYNPISSSICHLTNESDGHTTSLYGIGFGPFIITNKHLFRRNNGTLVVQSLHGVFKVKDTTTLQQHLVDGRDMIIIRMPKDFPPFPQKLKFREPQREERICLVTTNFQTKSMSSMVSATSCTFPSGDGIFWKHWIQTKDGQCGSPLVSTRDGFIVGIHSASNFTNTNNYFTSVPKNFMELLTNQEAQQWVSGWRLNADSVLWGGHKVFMVKPEEPFQPVKEATQL [D128A] | 0.0893 | 0.118 | 0.0868 | 0.0665 | 0.136 | 0.0543 | 0.0844 | 0.0816 |  | 0.0632 |  | 0.164 |  | 0.0638 |  | 0.0672 |  | 0.101 | 0.0874
5 | MGESLFKGPRDYNPISSSICHLTNESDGHTTSLYGIGFGPFIITNKHLFRRNNGTLVVQSLHGVFKVKDTTTLQQHLVDGRDMIIIRMPKDFPPFPQKLKFREPQREERICLVTTNFQTKSMSSMVSDTSCTFPSGDGIFWKHWIQTKDGQCGSPLVSTRDGFIVGIHSASNFTNDNNYFTSVPKNFMELLTNQEAQQWVSGWRLNADSVLWGGHKVFMVKPEEPFQPVKEATQL [T176D] | 0.0691 | 0.0489 | 0.0704 | 0.0655 |  | 0.0589 | 0.0605 |  | 0.0778 |  |  | 0.0818 | 0.0618 |  |  | 0.0672 |  |  | 
6 | MGESLFKGPRDYNPISSSICHLTNESDGHTTSLYGIGFGPFIITNKHLFRRNNGTSVVQSLHGVFKVKDTTTLQQHLVDGRDMIIIRMPKDFPPFPQKLKFREPQREERICLVTTNFQTKSMSSMVSDTSCTFPSGDGIFWKHWIQTKDGQCGSPLVSTRDGFIVGIHSASNFTNTNNYFTSVPKNFMELLTNQEAQQWVSGWRLNADSVLWGGHKVFMVKPEEPFQPVKEATQL [L56S] | 0.069 | 0.0497 | 0.0434 | 0.0416 | 0.112 | 0.0357 | 0.054 | 0.0338 | 0.0408 |  | 0.0519 | 0.0504 | 0.0372 | 0.0397 |  | 0.0455 |  | 0.0448 | 0.0563
7 | MGESLFKGPRDYNPISSSICHLTNESDGHTTSLYGIGFGPFIITNKHLFRRWNGTLVVQSLHGVFKVKDTTTLQQHLVDGRDMIIIRMPKDFPPFPQKLKFREPQREERICLVTTNFQTKSMSSMVSDTSCTFPSGDGIFWKHWIQTKDGQCGSPLVSTRDGFIVGIHSASNFTNTNNYFTSVPKNFMELLTNQEAQQWVSGWRLNADSVLWGGHKVFMVKPEEPFQPVKEATQL [N52W] | 0.0605 | 0.0696 | 0.0588 | 0.0703 | 0.0773 | 0.0574 | 0.0703 | 0.059 | 0.055 | 0.0648 | 0.0691 | 0.0715 | 0.061 | 0.0607 | 0.0628 | 0.0604 |  | 0.0643 | 0.0593
8 | MGESLFKGPRDYNPISSSICHLTNESDGHTTSLYGIGFGPFIITNKHLFRRNNGTLVVQSLHGVFKVKDTTTLQQHLVDGRDMIIIRMPKDFPPFPQKLKFREPQREERICLVTTNFQTKSMSSMVSDTSCTFPSGDGIFWKHWIQTKDGQCGSPLVSTRDGFIVGIHSASNFTNTNNYFTSVPKNFMELLTNQEAQQWVSGWRLNADSVLWGGHKVFMVKPEEPCQPVKEATQL [F226C] | 0.0625 | 0.0592 | 0.057 | 0.0608 | 0.129 | 0.0641 | 0.0493 | 0.0844 |  |  |  | 0.113 | 0.0797 | 0.0548 | 0.109 |  |  |  | 
9 | MGESLFKGPRDYNPISSSICHLTNESDGHTTSLYGIGFGPFIITNKHLFRRNNGTLVVQSLHGVFKVKDTTTLQQHLVDGRDMIIIRMPKDFPPFPQKLKFREPQREERICLVTTNFQTKSMSSMVSDTSCTFPSGDGIFWKHWIQTKDGQCGSPLVSTRDGFIVGIHSASNFTNTNNYFTSVPKNFMELLTNQEAQKWVSGWRLNADSVLWGGHKVFMVKPEEPFQPVKEATQL [Q198K] | 0.0844 | 0.075 |  | 0.07 | 0.0536 | 0.0704 | 0.0517 | 0.085 |  | 0.0678 | 0.0809 | 0.135 | 0.0817 | 0.0969 |  | 0.0504 | 0.0936 | 0.0822 | 

From the supplement of paper PMC12217912
